The source gives no read counts; variants with many changes may rest on few reads.

From the RNAGym collection of RNA variant scans (doi:10.1093/nar/gkz1192) come the findings set out here.

B1: CPEB3 Ribozyme (parent)
chain: UAACAGGGGGCCACAGCAGAAGCGUUCACGUCGCAGCCCCUGUCAGAUUCUGGUGAAUCUGCGAAUUCUGCUGUAUAUCUC

In the data set the parent is B1. Description: self-cleavage, relative activity (ratio to wild type); higher = more cleavage; in vitro, sequencing. Put shortly:
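Relative activity was defined as the cleaved/total read fraction for a variant divided by the same fraction for the unmutated ribozyme. CPEB3 self-cleaving ribozyme libraries were made by rounds of error-prone PCR, barcoded, and transcribed in vitro with T7 RNA polymerase for 5 hours at 37°C, and cleavage ran through transcription plus a 15 min DNase I step before EDTA. Illumina sequencing of template-switched reverse transcripts gave the reads, and DNA sequencing mapped the barcodes. Averages come from three batches, using variants with at least 5 reads.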
Consider G10A C17U A47U, for which the self-cleavage was 0.03.

On to G9C C29U A47G, for which the self-cleavage was 0.19.

For G9U G16U A45U U66C U67A C68U U80C, the self-cleavage stood at 0.05.

On to G10A A35G U60G A64G, for which the self-cleavage was determined as 0.31.

Consider G9U G63U U76C, for which the self-cleavage came out at 0.25.

With G9C A13U A65G U67G U69A, the self-cleavage came to 0.16.

Turning to G10A A45U A56U A65G, the self-cleavage turned out to be 0.12.

Turning to G10C U49C U80A, the self-cleavage was 0.12.

As for G9A U54A U66A U80C, the self-cleavage was 0.19.

G10C A18G A20G G52A: the self-cleavage stood at 0.28.

For the variant G9U U49C U67C, the self-cleavage is 0.31.

With G10C C38A A45U U51C U80C, the self-cleavage turned out to be 0.17.

In the case of G10C U26C U51A U69C, the self-cleavage was found to be 0.08.

On to G10A U78A U80C, for which the self-cleavage was determined as 0.16.

For G9U G53A U69A, the self-cleavage was 0.06.

Regarding G10C U25C C34U, the self-cleavage stood at 0.1.

As for G9A A57G U60C U80C, the self-cleavage was determined as 0.05.

As for G9U U41A U49C U51C U67C, the self-cleavage is 0.06.

As to C11A A21G A28U A65G, the self-cleavage is 0.05.

For the variant G9A U54A U60A U78C, the self-cleavage worked out at 0.08.

Regarding G9A A21G U43C U54C C59A G63A A65G, the self-cleavage amounted to 0.1.

As to G9U C37U U48C, the self-cleavage was found to be 0.13.

Regarding G9A C14G A45G, the self-cleavage is 0.05.

In the case of G9A A21G U54C A64U, the self-cleavage was determined as 0.05.

In the case of G10A A18U A35G U41A U51C U54C U60C, the self-cleavage amounted to 0.05.

For G9A U41A U48C U69C, the self-cleavage was determined as 0.17.

Take G9U A13U A18U U25C U69C: the self-cleavage came to 0.05.

For the variant G9A U25C A64G U80A, the self-cleavage came to 0.06.

For G9A U43C A57G A77G, the self-cleavage is 0.14.

In the case of G10A G42A U43C, the self-cleavage was 0.27.

On to C11A A20G G30A A77G, for which the self-cleavage came out at 0.28.

In the case of G10A C29A A47G U78C U80C, the self-cleavage turned out to be 0.11.

On to G9A A21G U41A, for which the self-cleavage came to 0.18.

G9A C12A U25C U43A A56G: the self-cleavage worked out at 0.07.

G9A U31A U41C: the self-cleavage worked out at 0.31.

G9U A47G A56U U69C: the self-cleavage was found to be 0.31.

For the variant G9A U25A U58C, the self-cleavage was determined as 0.05.

For G9C U25C A47G, the self-cleavage amounted to 0.19.

As for G10C U49A U72A, the self-cleavage worked out at 0.24.

For G10A A20G U69C, the self-cleavage is 0.07.

Consider G10A A13U U43C C44U C59G C81A, for which the self-cleavage is 0.04.

Regarding G9A G30C A65G U67A, the self-cleavage stood at 0.07.

For the variant G9A U66C U67A, the self-cleavage was 0.16.

As to G10U A13U A45G U67C, the self-cleavage is 0.34.

For G9U C14U C29U U60C, the self-cleavage came out at 0.06.

For the variant C11A A13U G53U, the self-cleavage amounted to 0.45.

Turning to G9U A15G A18G U26A A28G U66C, the self-cleavage is 0.07.

For G9A A35G U41C G52A, the self-cleavage worked out at 1.04.

G10A U67C U76C A77U: the self-cleavage came out at 0.04.

Take G9U A20G C29U A45C: the self-cleavage worked out at 0.22.

As for G10C A28G A47G U60C U66C, the self-cleavage turned out to be 0.14.

G10A A21G U25A A45G U74C: the self-cleavage was determined as 0.07.

In the case of G9A C23G U31A U43C U76C, the self-cleavage was 0.04.

As for G9U A13G U25C G30A A45U A75G, the self-cleavage stood at 0.1.

In the case of G9A C44U A57G, the self-cleavage came to 0.05.

For G9A G19C C40G A56U U69A A77G, the self-cleavage turned out to be 0.07.

Regarding G9U A35U U41C, the self-cleavage is 0.41.

In the case of G9A G10C U26A U31A U49C G61A U67A, the self-cleavage was determined as 0.04.

Consider G10A U31C A35U U48C U80C, for which the self-cleavage is 0.19.

Take G10A U60C U80C: the self-cleavage came to 0.2.

As to G10C C29U A35U U49C U51A G53A, the self-cleavage is 0.11.

For G10A C40U U43C A75G, the self-cleavage was determined as 0.05.

As for G9C U25C U49A A56U, the self-cleavage worked out at 0.2.

Take G10A C11G A21G U76G U80A: the self-cleavage was found to be 0.06.

With G10A C11U U49A U60G U69C G70A A75G, the self-cleavage amounted to 0.06.

As for G10C A13G A20G U41C U43G U51C U80A, the self-cleavage turned out to be 0.

For G9A U25G U51A C62U U67C U74C A75U, the self-cleavage worked out at 0.03.

Regarding C11A A13G U67C G70C U80A C81U, the self-cleavage amounted to 0.05.

With G9A A21G C23U A35G U58C G70A, the self-cleavage is 0.14.

Take G9A U58G A77C: the self-cleavage came to 0.06.

Turning to G9A U25A A45G C62U U72C U76A, the self-cleavage is 0.04.

For the variant G10A A20G A35C U41C U43A U72C A77C, the self-cleavage was 0.04.

Turning to G10U A13C A15G U41A, the self-cleavage amounted to 0.1.

G10A A15U U31A A45G: the self-cleavage came out at 0.04.

Regarding G10A A20U U49A U51G U66C, the self-cleavage stood at 0.17.

On to G9A A35G C37A A64G U66C U69A U78C, for which the self-cleavage amounted to 0.03.

For the variant G9A U54C G61A, the self-cleavage is 0.12.

With G10A G30A U31A, the self-cleavage came out at 0.05.

Turning to G10A C11U A45U A47G U69A, the self-cleavage is 0.04.

For the variant G10A U41C A64U A65U U72C, the self-cleavage was 0.09.

As for G9A U48C U60C, the self-cleavage worked out at 0.21.

For the variant G9C A18U A20G U54C U80C, the self-cleavage was 0.34.

In the case of G9U A35U A56G A57U, the self-cleavage was 0.12.
